Experiments:
[1] = target: T1, NLpoly 5P (3P + D108N + N144T); experiment: luminescence complementation; HeLa lysate
T1 chain: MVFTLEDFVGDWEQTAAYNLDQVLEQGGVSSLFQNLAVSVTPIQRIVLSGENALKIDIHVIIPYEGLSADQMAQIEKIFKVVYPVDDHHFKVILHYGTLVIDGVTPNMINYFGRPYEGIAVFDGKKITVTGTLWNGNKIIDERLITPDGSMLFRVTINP

[2] = target: T1, NLpoly 5P (3P + D108N + N144T); experiment: luminescence complementation
[3] = target: T1, NLpoly 5P (3P + D108N + N144T); experiment: luminescence complementation binding; NLpoly 5P expressed in E. coli
[4] = target: T1, NLpoly 5P (3P + D108N + N144T); experiment: luminescence complementation; PBS
[5] = target: T1, NLpoly 5P (3P + D108N + N144T); experiment: luminescence complementation; average HeLa, HEK293, CHO lysates
[6] = target: T1, NLpoly 5P (3P + D108N + N144T); experiment: luminescence complementation; NanoGlo
[7] = target: T1, NLpoly 5P (3P + D108N + N144T); experiment: luminescence complementation; average HeLa, HEK293, CHO lysates

Question: With Ac-SGWRLFKKISN-NH2 [NLpep81] as the binder, how does the Kd [1] read?
Answer: Its Kd is 0.101 µM.

Question: What about the Kd [2] of the same binder?
Answer: Its Kd is 0.116 µM.

Question: Ac-GWRLFKKISN-NH2 [NLpep82] was tested. Which Kd [1] did it give?
Answer: The Kd was 0.212 µM.

Question: What about the Kd [2] of the same binder?
Answer: The Kd was 0.0978 µM.

Question: How did the Kd [1] turn out when Ac-NVSGWRLFKKI-NH2 [NLpep84] was run?
Answer: Its Kd is 0.027 µM.

Question: Ac-VSGWRLFKKISN-NH2 [NLpep80] was tested. Which Kd [3] did it give?
Answer: The Kd was 0.0054 µM.

Question: What about the Kd [2] of the same binder?
Answer: Its Kd is 0.0069 µM.

Question: Which results are given for GVTGWRLCERILA [NLpepWT]?
Answer: Kd [4]: 0.321 µM; Kd [5]: 4.2 µM; Kd [6]: 6.04 µM

Question: For Ac-SGWRLFKKI-NH2 [NLpep87], which Kd [1] is on record?
Answer: Its Kd is 0.282 µM.

Question: And the Kd [3]?
Answer: The Kd was 0.352 µM.

Question: With Ac-NVSGWRLFKKIS-NH2 [NLpep83] as the binder, how does the Kd [1] read?
Answer: The Kd was 0.006 µM.

Question: Ac-VSGWRLFKKIS-NH2 [NLpep86] was tested. Which Kd [1] did it give?
Answer: The Kd was 0.002 µM.

Question: What does the source list for NVTGYRLFKKISN [NLpep79]?
Answer: Kd [4]: 0.01 µM; Kd [5]: 0.064 µM; Kd [6]: 0.307 µM

Question: For GVTGWRLCKRISA [NLpep9], which Kd [7] is on record?
Answer: The Kd was 0.642 µM.

Question: With Ac-NVSGWRLFKK-NH2 [NLpep85] as the binder, how does the Kd [1] read?
Answer: The Kd was 0.257 µM.

Question: With GVTGWRLFKRISA [NLpep53] as the binder, how does the Kd [7] read?
Answer: The Kd was 0.018 µM.
